In the supplement of paper PMC11417369:
± gives the standard deviation of the averaged measurements. Some of the results follow.

tested on: PfAP2-EXP AP2 domain (GST-tagged); assay: gcPBM binding intensity (ln(normalized median fluorescence intensity)); higher = stronger DNA binding
How it was run: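 In this array assay, P. falciparum DNA-binding domains with a GST tag, expressed in E. coli, were applied for 1 h to primer-extended double-stranded 36-bp intergenic genomic probes and negative controls on an Agilent 4 × 180k array. Bound protein was visualised with Alexa488 anti-GST antibody at 488 nm. Binding intensity is the highest Masliner-normalised natural-log median intensity across replicate spots of either probe orientation.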

Row | Sequence | gcPBM binding intensity (ln)
1 | AAAAAAAAAAAAAACACACAGAAATATATATATATT [CACACA_site832] | 8.54 ± 0.56
2 | TTTTTGTAACCGATTCTGCACTGAGAAGCACATATA | 8.51 ± 0.24
3 | TACACATACAGACATACACACATACCCATATACTCA [CACACA_site5037] | 8.57 ± 0.62
4 | GGCATATATATATGCACACATACATATATACATGTG [CACACA_site3859] | 8.82 ± 0.11
5 | GAAATTACTTTATAAACACACATTTATTTTATTTTA [CACACA_site7007] | 8.45 ± 0.24
6 | TTATTTACAAAACAAATCAAAATATCCAAAAGAATA [CACACA_negctrl_site1789] | 8.22 ± 0.46
7 | ATATTATACGCATATGTGCGCATACATTTTTTTGCA [GTGCAC_site9540] | 8.68 ± 0.18
8 | ATGTTATTAATAATTGCACACATTTTTTTTTTTTTT [CACACA_site3920] | 8.73 ± 0.5
9 | TCATATTTATATAAATGTACTTAATTGGTTTCTTTA [XGTACX_site7848] | 8.46 ± 0.41
10 | AGATTGTAAGTAAACACACACACATATATATGTATA [CACACA_site675] | 8.66 ± 0.4
11 | ATTATATAGAATTGTACATGCGAATTGTATAACGAT [TGCATGCA_site125] | 9.31 ± 0.57
12 | TATAAACGTATAATATGTACACACACATATATACAA [XGTACX_site1686] | 8.43 ± 0.32
13 | TATTTTTTTTTTTTTTTTTTTTTTATATATACATAT [CACACA_negctrl_site23] | 8.03 ± 0.45
14 | AAAAAAAAAAAAAAAAATATATTTATGAAATAAAAA [TGCATGCA_negctrl_site262] | 8.405 ± 0.078
15 | AATGGATATTTCTTTATATATATCTTATTTGATTAT [XGTACX_negctrl_site284] | 8.23 ± 0.25
16 | TTTCTATTCCATTCAACACACAAAAATGTATGCTTT [CACACA_site1072] | 8.66 ± 0.37
17 | TTTTTCTTTCTATTTATCAATATTAAAAAAAAAAAA [CACACA_negctrl_site1629] | 8.17 ± 0.49
18 | TTTTTATAATGATACATATATTATTTTATTCTTAAT [CACACA_negctrl_site124] | 8.15 ± 0.37
19 | TTACTCATGAAAGATACACACATTCGTTATTTATAT [CACACA_site7517] | 8.52 ± 0.39
20 | TTTTTTCAAATTTTCTTTTTTCTTTTGTTTTTTTTG [CACACA_negctrl_site380] | 8.39 ± 0.54
21 | TATACATGTATATATTGTACATATGTTTTTTTTACA [XGTACX_site3300] | 8.86 ± 0.57
22 | TATTTATAAACATACGCACACATTAATATATATATA [CACACA_site9314] | 9.47 ± 0.11
23 | TAAATTATTATCCCCTCACACACAAAAATAAAAAGA [CACACA_site2886] | 9.12 ± 0.69

Row | Sequence | gcPBM binding intensity (ln)
24 | CACAAAATAAATTAAACACACAACATCATATATGTA [CACACA_site846] | 8.59 ± 0.47
25 | GAAGAAGTTTAAAAAGCACACAAAAAAAAAAAAAAA [CACACA_site9088] | 8.21 ± 0.52
26 | ATTATTATTAATCTTGTGCACATATATTTTAATTAG | 9.035 ± 0.078
27 | AGATATTCTACTATGTGTACATATATATATATAATT [XGTACX_site5060] | 8.65 ± 0.24
28 | CTTGTAGATATAAAATGTACAAAAATAAATTGCACA [XGTACX_site4409] | 8.35 ± 0.13
29 | GTACAATCATATACTACATGCAGTTTTTTTTATTGA [TGCATGCA_site230] | 9.21 ± 0.27
30 | AAATAAATACATAATACATGCATATTTAATATATAG [TGCATGCA_site135] | 8.59 ± 0.2
31 | TTTTCTTTTTCTTGTACACACATAATATGGATGAAA [CACACA_site808] | 8.81 ± 0.5
32 | AATTTTTTTTAATGATGTACTTTTTGAAAATAAACT [XGTACX_site4221] | 8.36 ± 0.18
33 | ATATATATATATATTTATTCATATATTTTTTGTCTT [TGCATGCA_negctrl_site58] | 9.99 ± 0.12
34 | TTTTTATTTTTTCAGTGTACATTTAAATTATCTTAT [XGTACX_site3905] | 8.77 ± 0.42
35 | TAAAGAAACGCATCGACGCACACTACAAAATAAAAA [CACACA_site1348] | 8.57 ± 0.61
36 | TATAAATATCTGAATTGTACAGGTGAAAAAAAAAAT [XGTACX_site1867] | 8.88 ± 0.51
37 | TTTTTTATTATTATTATTTTTTATGTATAATAATGT [CACACA_negctrl_site631] | 8.34 ± 0.45
38 | AAATAATTTATGCATACACACATATATATATATATA [CACACA_site4020] | 10.1 ± 0.61
39 | TTACTTTTTTTTTTATGTACTTATATTTTTTACACT [XGTACX_site3503] | 8.81 ± 0.6
40 | TATGAATACATTTGTTGTACTTAAATTTCCTTTATT [XGTACX_site5374] | 8.54 ± 0.31
41 | TAGATATATAAATACACACACATACACAAAAAAAAA [CACACA_site7652] | 8.62 ± 0.56
42 | ATATATATATATATATATATAATAAAAGATCATTTA [XGTACX_negctrl_site371] | 10.2 ± 0.26
43 | ATAATAAAAAGAAAAAGTACAAATGATTATGTTTGA [XGTACX_site3615] | 9.27 ± 0.49
44 | CAAGTATTATATTGCGCATGCAAAGAAGGACACAAA [TGCATGCA_site1024] | 9.78 ± 0.13
45 | TTATCTAGTACATACATACACACAACCATGTTATGA [CACACA_site3988] | 8.47 ± 0.36
46 | TTCTACATGAAGTTATAAATTAATATTTTAATTTAT [XGTACX_negctrl_site134] | 8.13 ± 0.37

Row | Sequence | gcPBM binding intensity (ln)
47 | AATAAATAAATAAGTACACACATATAAATATAAATA [CACACA_site6271] | 8.69 ± 0.27
48 | TACTTTATTTTTTATACACACACAATATGTATATAT [CACACA_site9184] | 8.71 ± 0.36
49 | GTATTTCTTTAATATACACACACCAAAACAAAAAAA [CACACA_site579] | 8.81 ± 0.4
50 | TGTTATTCTGCATATACACACAAATAACAATTTAAA [CACACA_site6943] | 8.49 ± 0.33
51 | TAAGATATAAAAAATGTGCACATTAAAGTATTAATT | 8.71 ± 0.3
52 | TCTTATGATGGAATGTTAAATATTACATTTTGTTTA [TGCATGCA_negctrl_site503] | 8.28 ± 0.27
53 | CAAAAAAAAAAAAAAACACACATTAAATTATAAAGA [CACACA_site2613] | 8.36 ± 0.64
54 | TTTATATAGAAACACACACACAAAAAAAAAAAAAAA [CACACA_site2646] | 8.24 ± 0.52
55 | TTACAAAAAAAAAGGCGCGGATGGGGGCAATAGCAA [CACACA_negctrl_site238] | 9.14 ± 0.28
56 | ATGAACATCCAATATACACACATATATATTTATATT [CACACA_site829] | 8.58 ± 0.38
57 | TAATGTTTCAAAATTTAATATACTACAAATATTATA [TGCATGCA_negctrl_site336] | 8.01 ± 0.41
58 | AGAGTACAAGTAAATACACACATATATATGAAAATA [CACACA_site1079] | 8.64 ± 0.3
59 | ATCACATTCCACGGTACACACTAAAAGAAAAATCAG [CACACA_site5907] | 8.68 ± 0.56
60 | ATTTATATTTAATATACACACATTATTTTTTTATAT [CACACA_site574] | 8.53 ± 0.37
61 | TACATAAATACATACACACACATATAACCAATGTAG [CACACA_site5243] | 8.73 ± 0.42
62 | CACATATATACACATACACACACACCCATACACCCA [CACACA_site8505] | 8.77 ± 0.33
63 | TTTACATTTTAGGAAGTGCATATAATAAATACTATC | 8.64 ± 0.12
64 | ATATAATATTTTAGAGTGCACCGATAACAATAAATA [GTGCAC_site9754] | 9.4 ± 0.11
65 | TATAATATGACAAGAAGTACATATATTTACATATAT [XGTACX_site1571] | 8.31 ± 0.39
66 | AAAAGATAAAAAGAAGTGCATAATAGGAACAAATAT [GTGCAC_site9717] | 9.35 ± 0.45
67 | CATTTCATTAATAAATGTACTTGTGAAGAGAAAAAG [XGTACX_site3115] | 8.66 ± 0.39
68 | TATATGTGGGTTTTTTTTATGTGTTTTTCTTTTTTT [CACACA_negctrl_site936] | 8.51 ± 0.49
69 | ACAAAATTTACAAAATGTACAAAATATACAAAATGT [XGTACX_site3543] | 8.34 ± 0.43

Row | Sequence | gcPBM binding intensity (ln)
70 | AATAATAAAATAAAAGTGCATTAATTATAATTCTTT [GTGCAC_site9491] | 8.68 ± 0.085
71 | TTAAATATTTATATTTGTACACAATCAATCATACAC [XGTACX_site5793] | 8.67 ± 0.2
72 | GAGGAAAAAAAAAAAAGTACATTATATAAGAAAATT [XGTACX_site2610] | 8.62 ± 0.33
73 | TCTTTCTAAATCTTACAAATTACTAAAATATTTATA [CACACA_negctrl_site87] | 8.36 ± 0.45
74 | AATTATAATAATAATAGTACATAAGTATATAAATAA [XGTACX_site2400] | 8.46 ± 0.31
75 | TTGGTTTCTTGTTTTTGTACCCATAATTTGTAATAT [XGTACX_site1248] | 9.13 ± 0.5
76 | AAAAAAAAAAAAAAAAGTACAAATTTAAAAATGTGT [XGTACX_site112] | 8.54 ± 0.099
77 | CATAAATACAGTAACACACACAAAAAAATATGAATA [CACACA_site6066] | 8.89 ± 0.49
78 | ATATATATATTATATGCACACTAATAAGACTATTTA [CACACA_site5880] | 9.125 ± 0.021
79 | TGTTTTGTTATTTTTATTTATATAAATAAAGCTATA [GTGCAC_negctrl_site88] | 8.77 ± 0.33
80 | TTGTTATGCATTGGTTGTACATAAGTATAAGTAATT [XGTACX_site5401] | 8.66 ± 0.35
81 | ATATATATATTTTATTGTACAAAAAAAAAAAAAAAA [XGTACX_site6803] | 8.86 ± 0.33
82 | AAAAAAAAAATATGTACACACATATAAAATACATAA [CACACA_site6869] | 8.56 ± 0.3
83 | CCATTATACACAATATGTACATATATATAATCATTT [XGTACX_site7942] | 8.62 ± 0.33
84 | TTTGTTTGTAAAATGTTGCACTTTCTTTTGCTGATA | 8.79 ± 0.37
85 | ATAGGATTCTCAAAGTGTACTTGTCTACTGTAGTTT [XGTACX_site4202] | 8.43 ± 0.33
86 | ACATATATATATATTACACACACACTAATAAAATAA [CACACA_site7920] | 8.74 ± 0.59
87 | TTTCAAGAATTATATAAACACACATACATACACCCA [CACACA_site8592] | 8.98 ± 0.58
88 | TTTTTTTTTCTTTGCACACAGATAACTTGAAATTTG [CACACA_site2185] | 8.58 ± 0.45
89 | TTTTATAATTTATCTAAAAAAAAATAAAATAAAATG [TGCATGCA_negctrl_site429] | 8.505 ± 0.078
